# The list shows a part of the results.
# Tests used:
# Test in all cases: glycan array binding signal (z-score within array); higher = stronger binding
# Details in all cases: glycan notation: IUPAC condensed, linker removed
# [1] = target: Fuc(a1-3)[Gal(b1-4)]GlcNAc(b1-3)Gal(b1-4)[Fuc(a1-3)]GlcNAc
# In short: (§1)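 Arrays were curated from the Consortium for Functional Glycomics database, 3228 in total, and kept only where the protein sequence was available. Binding is expressed as a within-array Z-score. This score was averaged across arrays of the same protein sequence at different concentrations or buffers and across linkers, and negative values can be read as non-binding.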
# [2] = target: Fuc(a1-3)[Gal(b1-4)]GlcNAc(b1-3)Gal(b1-4)[Fuc(a1-3)]GlcNAc(b1-3)Gal(b1-4)[Fuc(a1-3)]GlcNAc
# In short: as §1
# [3] = target: Fuc(a1-3)[Gal(b1-4)]GlcNAc(b1-3)GalNAc
# In short: as §1
# [4] = target: Fuc(a1-3)[Gal(b1-4)]GlcNAc(b1-6)GalNAc
# In short: as §1
# [5] = target: Fuc(a1-3)[Gal(b1-4)]GlcNAc(b1-6)[Gal(b1-3)GlcNAc(b1-3)]Gal(b1-4)Glc
# In short: as §1
# [6] = target: Fuc(a1-3)[Gal(b1-4)]GlcNAc6S
# In short: as §1
# [7] = target: Fuc(a1-3)[Gal3S(b1-4)]Glc
# In short: as §1
# [8] = target: Fuc(a1-3)[Gal3S(b1-4)]GlcNAc
# In short: as §1
# [9] = target: Fuc(a1-3)[Gal3S(b1-4)]GlcNAc6S
# In short: as §1
# [10] = target: Fuc(a1-3)[GalNAc(b1-4)]GlcNAc
# In short: as §1
# [11] = target: Fuc(a1-3)[GalNAc(b1-4)]GlcNAc6S
# In short: as §1
# Fuc(a1-4)GlcNAc = target: Fuc(a1-4)GlcNAc
# In short: as §1
# Fuc(b1-3)GlcNAc = target: Fuc(b1-3)GlcNAc
# In short: as §1
# Gal(a1-2)Gal = target: Gal(a1-2)Gal
# In short: as §1
# Gal(a1-3)Gal = target: Gal(a1-3)Gal
# In short: as §1
# Gal(a1-3)Gal(b1-3)GlcNAc = target: Gal(a1-3)Gal(b1-3)GlcNAc
# In short: as §1
# [12] = target: Gal(a1-3)Gal(b1-3)GlcNAc(b1-2)Man
# In short: as §1
# [13] = target: Gal(a1-3)Gal(b1-3)GlcNAc(b1-2)Man(a1-3)[Gal(a1-3)Gal(b1-3)GlcNAc(b1-2)Man(a1-6)]Man(b1-4)GlcNAc(b1-4)GlcNAc
# In short: as §1
# [14] = target: Gal(a1-3)Gal(b1-3)GlcNAc(b1-3)GalNAc
# In short: as §1
# [15] = target: Gal(a1-3)Gal(b1-3)GlcNAc(b1-6)GalNAc
# In short: as §1
# [16] = target: Gal(a1-3)Gal(b1-3)[Fuc(a1-4)]GlcNAc(b1-2)Man(a1-3)[Gal(a1-3)Gal(b1-3)[Fuc(a1-4)]GlcNAc(b1-2)Man(a1-6)]Man(b1-4)GlcNAc(b1-4)GlcNAc
# In short: as §1
# Gal(a1-3)Gal(b1-4)Glc = target: Gal(a1-3)Gal(b1-4)Glc
# In short: as §1
# Gal(a1-3)Gal(b1-4)GlcNAc = target: Gal(a1-3)Gal(b1-4)GlcNAc
# In short: as §1
# [17] = target: Gal(a1-3)Gal(b1-4)GlcNAc(b1-2)Man
# In short: as §1
# [18] = target: Gal(a1-3)Gal(b1-4)GlcNAc(b1-2)Man(a1-3)[Gal(a1-3)Gal(b1-4)GlcNAc(b1-2)Man(a1-6)]Man(b1-4)GlcNAc(b1-4)GlcNAc
# In short: as §1
# [19] = target: Gal(a1-3)Gal(b1-4)GlcNAc(b1-3)GalNAc
# In short: as §1
# [20] = target: Gal(a1-3)Gal(b1-4)GlcNAc(b1-6)GalNAc
# In short: as §1
# [21] = target: Gal(a1-3)Gal(b1-4)[Fuc(a1-3)]GlcNAc
# In short: as §1
# [22] = target: Gal(a1-3)Gal(b1-4)[Fuc(a1-3)]GlcNAc(b1-2)Man(a1-3)[Gal(a1-3)Gal(b1-4)[Fuc(a1-3)]GlcNAc(b1-2)Man(a1-6)]Man(b1-4)GlcNAc(b1-4)GlcNAc
# In short: as §1
# Gal(a1-3)GalNAc = target: Gal(a1-3)GalNAc
# In short: as §1
# [23] = target: Gal(a1-3)[Gal(a1-4)]Gal(b1-4)GlcNAc
# In short: as §1
# [24] = target: Gal(a1-4)Gal(b1-3)GlcNAc(b1-2)Man(a1-3)[Gal(a1-4)Gal(b1-3)GlcNAc(b1-2)Man(a1-6)]Man(b1-4)GlcNAc(b1-4)GlcNAc
# In short: as §1
# Gal(a1-4)Gal(b1-4)Glc = target: Gal(a1-4)Gal(b1-4)Glc
# In short: as §1
# Gal(a1-4)Gal(b1-4)GlcNAc = target: Gal(a1-4)Gal(b1-4)GlcNAc
# In short: as §1
# [25] = target: Gal(a1-4)Gal(b1-4)GlcNAc(b1-2)Man(a1-3)[Gal(a1-4)Gal(b1-4)GlcNAc(b1-2)Man(a1-6)]Man(b1-4)GlcNAc(b1-4)GlcNAc
# In short: as §1
# [26] = target: Gal(a1-4)Gal(b1-4)GlcNAc(b1-3)Gal(b1-4)Glc
# In short: as §1
# Gal(a1-4)GlcNAc = target: Gal(a1-4)GlcNAc
# In short: as §1
# Gal(a1-6)Glc = target: Gal(a1-6)Glc
# In short: as §1
binder,measurement,setting,value
LecRKVI.2 (protein) RTTTNFAFRGFNGNQSKIRIEGAAMIKPDGLLRLTDRKSNVTGTAFYHKPVRLLNRNSTNVTIRSFSTSFVFVIIPSSSSNKGFGFTFTLSPTPYRLNAGSAQYLGVFNKENNGDPRNHVFAVEFDTVQGSRDDNTDRIGNDIGLNYNSRTSDLQEPVVYYNNDDHNKKEDFQLESGNPIQALLEYDGATQMLNVTVYPARLGFKPTKPLISQHVPKLLEIVQEEMYVGFTASTGKGQSSAHYVMGWSFSSGGERPIADVLILSELPPPPPNKAKKEGLNS,glycan array binding signal (z-score),[1],0.278
same,glycan array binding signal (z-score),[2],-0.444
same,glycan array binding signal (z-score),[3],-0.268
same,glycan array binding signal (z-score),[4],3.86
same,glycan array binding signal (z-score),[5],-0.384
same,glycan array binding signal (z-score),[6],-0.365
same,glycan array binding signal (z-score),[7],-0.379
same,glycan array binding signal (z-score),[8],-0.398
same,glycan array binding signal (z-score),[9],-0.339
same,glycan array binding signal (z-score),[10],-0.18
same,glycan array binding signal (z-score),[11],-0.386
same,glycan array binding signal (z-score),Fuc(a1-4)GlcNAc,1.29
same,glycan array binding signal (z-score),Fuc(b1-3)GlcNAc,-0.152
same,glycan array binding signal (z-score),Gal(a1-2)Gal,-0.441
same,glycan array binding signal (z-score),Gal(a1-3)Gal,-0.264
same,glycan array binding signal (z-score),Gal(a1-3)Gal(b1-3)GlcNAc,-0.36
same,glycan array binding signal (z-score),[12],-0.407
same,glycan array binding signal (z-score),[13],0.906
same,glycan array binding signal (z-score),[14],2.35
same,glycan array binding signal (z-score),[15],-0.02
same,glycan array binding signal (z-score),[16],2.66
same,glycan array binding signal (z-score),Gal(a1-3)Gal(b1-4)Glc,0.972
same,glycan array binding signal (z-score),Gal(a1-3)Gal(b1-4)GlcNAc,-0.382
same,glycan array binding signal (z-score),[17],-0.378
same,glycan array binding signal (z-score),[18],3.09
same,glycan array binding signal (z-score),[19],-0.278
same,glycan array binding signal (z-score),[20],-0.349
same,glycan array binding signal (z-score),[21],-0.338
same,glycan array binding signal (z-score),[22],0.465
same,glycan array binding signal (z-score),Gal(a1-3)GalNAc,-0.413
same,glycan array binding signal (z-score),[23],-0.211
same,glycan array binding signal (z-score),[24],5.85
same,glycan array binding signal (z-score),Gal(a1-4)Gal(b1-4)Glc,-0.229
same,glycan array binding signal (z-score),Gal(a1-4)Gal(b1-4)GlcNAc,-0.266
same,glycan array binding signal (z-score),[25],-0.337
same,glycan array binding signal (z-score),[26],-0.282
same,glycan array binding signal (z-score),Gal(a1-4)GlcNAc,-0.142
same,glycan array binding signal (z-score),Gal(a1-6)Glc,-0.426

# From the supplement of paper PMC8728848
